Data reported in the supplement of paper PMC3334620.
Over roughly 33,000 sequences, “E-score (-0.5 to 0.5)” has its median near -0.035; the highest 2% begin near 0.34. Some of the results follow.

Target: T1, Mot3 (UniProt P54785)
T1 sequence: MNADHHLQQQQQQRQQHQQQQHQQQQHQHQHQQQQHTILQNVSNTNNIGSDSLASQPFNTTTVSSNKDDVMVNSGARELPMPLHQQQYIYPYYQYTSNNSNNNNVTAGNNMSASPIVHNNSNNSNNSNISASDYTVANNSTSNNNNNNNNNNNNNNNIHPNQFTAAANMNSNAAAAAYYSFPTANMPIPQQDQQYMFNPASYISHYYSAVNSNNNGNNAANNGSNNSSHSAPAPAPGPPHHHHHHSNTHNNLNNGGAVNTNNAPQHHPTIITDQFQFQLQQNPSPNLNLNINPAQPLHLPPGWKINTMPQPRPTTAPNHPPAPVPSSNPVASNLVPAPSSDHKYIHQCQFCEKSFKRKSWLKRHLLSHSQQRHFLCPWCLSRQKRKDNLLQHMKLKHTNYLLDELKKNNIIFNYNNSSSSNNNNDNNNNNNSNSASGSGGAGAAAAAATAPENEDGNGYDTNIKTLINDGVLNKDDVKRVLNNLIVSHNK
Test: PBM E-score (8-mer binding enrichment) (E-score (-0.5 to 0.5)); higher = stronger / more preferred TF binding; most listed sequences are background and not binding sites
Conditions: protein concentration: 200 nM; construct: GST-full length
Outline: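 For each ungapped eight-base word taken together with its reverse complement, the Universal PBM Analysis Suite assigned an E-score. Binding data came from GST-tagged yeast transcription factors, applied at about 100-200 nM, on universal all-10-mer Agilent arrays made double-stranded by primer extension. Fluorescent anti-GST marked bound protein, and scans were normalised with masliner.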

Row | Sequence | PBM E-score
1 | CTCACCCA | -0.181
2 | CCGGGTAC | -0.053
3 | TAGCACGA | -0.0559
4 | ACCTCTTG | -0.0648
5 | TGCTACCA | -0.0584
6 | CTACACTC | 0.0954
7 | AACCCGAA | 0.0529
8 | TAGCGAGA | -0.181
9 | CCGATGCC | -0.069
10 | ATTTGCGG | -0.113
11 | CACTCCGG | -0.00794
12 | CAATCCTG | 0.132
13 | CGCCGGAC | -0.2
14 | ATGGCTGA | -0.158
15 | AATCGAAG | 0.0585
16 | AGACCCGA | -0.0367
17 | CCGCGTCA | 0.109
18 | AGCCTAGC | -0.141
19 | AACCCTCT | -0.172
20 | CCCAACAA | 0.0799
21 | AGCATGCT | 0.0528
22 | CGACACAG | 0.0362

Row | Sequence | PBM E-score
23 | GGTCTCAA | -0.305
24 | ATTATTAG | -0.00718
25 | GTCGTCAC | -0.168
26 | ACGGTGAA | 0.0364
27 | GCCTGTGA | 0.283
28 | CCTAAACC | -0.0693
29 | CTAGATCC | -0.159
30 | ATTAGGTC | -0.0698
31 | AGCACTTA | -0.128
32 | CTACGTTA | 0.217
33 | TAGTACTA | -0.00966
34 | GTTGTTCA | 0.133
35 | GAATTAAA | 0.133
36 | ACCGCCGG | -0.387
37 | CCAGTTTC | -0.206
38 | TTCTCAAA | 0.0418
39 | TCCAAGAA | -0.132
40 | CCACGGAG | -0.164
41 | AAGCTAAG | -0.0161
42 | CACCCAGG | 0.0846
43 | CACATACA | 0.239
44 | CAAACTTA | 0.179

Row | Sequence | PBM E-score
45 | ATTTTGGG | -0.162
46 | CTAAACCC | 0.058
47 | CACCACGG | -0.0505
48 | AAGCTTAA | 0.099
49 | GCTCTGCA | -0.147
50 | AACTACCA | 0.0545
51 | GGTCGTCA | -0.146
52 | CGTAGGTC | -0.0769
53 | GCGAGTGA | -0.0321
54 | AACATCAA | 0.171
55 | ACTAAGAT | 0.0223
56 | TGGTAAAA | 0.103
57 | CAATCCGC | -0.123
58 | CGAGAGAC | -0.248
59 | CGTCTCAC | -0.0924
60 | AATGCAAG | 0.129
61 | ATACCTAT | 0.106
62 | ACTTCTCC | -0.113
63 | ATAGAGGG | -0.023
64 | ACCGAGTA | 0.0498
65 | TCCCGCCA | -0.297
66 | GGCTTATA | -0.00151

Row | Sequence | PBM E-score
67 | CTGGTATA | -0.226
68 | TATTGCGA | -0.0381
69 | GAGCTGAA | -0.166
70 | ATATATTG | 0.0788
71 | CTATTTAC | 0.243
72 | ATTGGGCG | -0.122
73 | AATCACGC | 0.056
74 | CATTCCTC | -0.00051
75 | GAAACCTA | 0.0788
76 | AAGATTAA | 0.0501
77 | GACCCTTA | -0.104
78 | ATGCTTAA | 0.0923
79 | CATCACGC | -0.173
80 | AAGCTACA | 0.024
81 | ACTACAGT | 0.164
82 | CAAGCCTG | 0.0397
83 | GCGTTCAC | -0.0491
84 | ATGTTGCC | 0.312
85 | CATAGACA | 0.104
86 | ATTTGTAC | 0.126
